Screen size: about 46,000 compounds; about 60 (0.1%) were called active. Not shown: some 3% with an inconclusive outcome. The call rests on the fitted dose curve; in most records, active means well fitted inhibition curve with a large enough effect; inconclusive means small, poorly fitted or top-dose-only effect; inactive means no such curve, though single readings can be large or run the other way. This is one part of the list.

The assay can be described thus: Primary qHTS assay for Inhibitors of ovarian cancer metastasis using an organotypic tumor microenvironment (TME) model. Further: nearly all actives have a fitted effect of over 65% in size.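 On activity change, negative = inhibition: plate controls were DMSO wells for no effect and tomatine positive control wells for full effect.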 The following applies: SKOV3ip1-GFP adhesion/invasion on 3D omental model, fluorescence; series mostly up to 45.8 µM; activity change, negative = inhibition: at the top concentration. Put shortly: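 Primary human omental fibroblast/mesothelial 3D culture pre-formed 48 h. SKOV3ip1-GFP cells added with compounds (0.36-46 umol/L), incubated 2 h RT/16 h 37 C, fixed; GFP cells quantified at 488/509 nm.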
Background: qHTS replaces the single test concentration by a dilution series.
As to `Cc1ccc(C(=O)Nc2ccc(-c3cn4cccnc4n3)cc2)cc1C`, the outcome was inactive.
For `COC(=O)c1c(-c2cccs2)csc1NC(=O)COc1ccc(C(C)(C)C)cc1`, the “activity change, negative = inhibition” value was inactive: 2.65%.
Consider `Cc1cccc(OCC(=O)N(Cc2cccs2)c2ccc(Cl)cc2)c1C`, for which the result was inactive.
With `CCCCN(CCCC)C(=O)c1cc2c(=O)n3cccc(C)c3nc2s1`, the “activity change, negative = inhibition” value was inactive: -7.78%.
As to `COc1ccc(C2CC(=O)N(CC(=O)Nc3cc(C)ccc3C)c3ccccc3S2)cc1` (configuration not stated), the call was inactive.
For `CC(C)(C)OC(=O)N1CCC(c2c(C(=O)N3CCC(c4ccccc4)C3)cnn2-c2cccc(Cl)c2)CC1` (configuration not stated), the “activity change, negative = inhibition” value was inactive: -4.39%.
Same read-out and setting: in the case of `CC(NC(=O)c1ccc2c(c1)CCN2S(=O)(=O)c1ccc(Cl)cc1)c1ccccc1` (configuration not stated) it was inactive: -14.1%; in that of `CCOc1ccc(NC(=O)CSc2nc3c(oc4ccccc43)c(=O)n2-c2ccccc2C)cc1`, inactive: 4.52%.
On to `COc1ccccc1-c1nnc(SCC(=O)c2ccc(Cl)cc2)n1-c1ccccc1`, for which the outcome was inactive.
Take `CCCCc1ccc(NC(=O)c2cc3c(=O)n4ccccc4nc3s2)cc1`: the “activity change, negative = inhibition” value was inactive: -3.11%.
The same measure, in the same setting: in the case of `COc1ccc(-c2cc3ccc(O)c(CN4CCOCC4)c3oc2=O)cc1OC` it was inactive: -12.6%.
With `Cc1ccc(-c2nc3sc(CCNC(=O)c4ccc(Br)o4)c(C)n3n2)cc1`, the molecule was classed as inactive.
On the same count and under the same terms, as for `COc1ccccc1CNC(=O)C(NS(=O)(=O)c1cccs1)C(C)C` (configuration not stated), the entry is “inactive”.
In the case of `COc1ccc(NC(=O)COc2ccc(-c3nn(C)c(=O)c4ccccc34)cc2)cc1`, the “activity change, negative = inhibition” value is inactive: 4.13%.
As to `CCCCOc1ccc(C(=O)Nc2cccc(-c3nc4cccnc4s3)c2)cc1`, the molecule was called inactive.
Consider `CCOc1ccc(OCC)c(NC(=O)c2nnn(CC(=O)Nc3ccc(C)cc3C)c2N)c1`, for which the “activity change, negative = inhibition” value was inactive: 15.3%.
Regarding `CCOc1ccc(C(=O)N2CCC(c3nc4ccccc4o3)CC2)cc1`, the “activity change, negative = inhibition” value is inactive: -9.24%.
Still for that read-out and setting: as for `CSc1cccc(NC(=O)CN2C(=O)COc3ccc(Cl)cc32)c1`, the figure is inactive: 9.61%.
On the same count and under the same terms, in the case of `Cc1cc2n(n1)C(c1cc(C(C)(C)C)c(O)cc1O)Nc1ccccc1-2` (configuration not stated) it was inactive: -13.4%; in that of `COc1ccc(N(C)C(=O)c2cn(C3CCCCC3)c(=O)c3c2c2ccccc2n3C)cc1`, inactive: 0.411%.
On to `COc1ccc(C2=NN(CC(=O)NCCc3ccc(OC)c(OC)c3)C(=O)CC2)cc1`, for which the molecule was classed as inactive.
Consider `CCn1ccc2cc(S(=O)(=O)N3CCCN(C(=O)Nc4cccc(Cl)c4)CC3)ccc21`, for which the “activity change, negative = inhibition” value was inactive: 3.35%.
In the case of `Cc1ccc(NC(=O)NCCc2c(C)nn(C)c2C)cc1Cl`, the call was inactive.
Turning to `COc1ccccc1NC(=O)C(=O)NCCc1csc(-c2cccc(F)c2)n1`, the “activity change, negative = inhibition” value is inactive: 3.12%.
On the same count and under the same terms, as for `CCCCN(CC)CCCNC(=O)CCN1N=C(c2ccc(OC)cc2)CCC1=O`, the figure is inactive: -2.43%; as for `CCOC(=O)c1c(S(=O)(=O)N2CCCC(C(=O)Nc3cccc(Cl)c3)C2)c(C)n(C)c1C` (configuration not stated), inactive: 3.3%.
For `CCOc1ccc(CNS(=O)(=O)c2cc3c(cc2C)NC(=O)CO3)cc1OC`, the “activity change, negative = inhibition” value was inactive: 7.18%.
As for `Cc1cc(N2CCCCC2)nc2ccc(NC(=O)c3cccc(Cl)c3)cc12`, the “activity change, negative = inhibition” value is inactive: -18.7%.
The same measure, in the same setting: in the case of `Cc1ccc(OCC(=O)Nc2nnc(SCc3cc(=O)c4ccccc4[nH]3)s2)cc1` it was inactive: 2.11%; in that of `CCOc1ccccc1C(=O)Nc1ccc2nc(N(CC)CC)cc(C)c2c1`, inactive: -2.3%; in that of `COc1ccc(NC(=O)c2cc(C3CC3)nc3c2c(C)nn3-c2ccccc2)cc1`, inactive: -24.2%.
Take `COc1ccc(-n2c(=O)c3c4c(sc3n(Cc3ccc(F)cc3)c2=O)CCCC4)c(OC)c1`: the “activity change, negative = inhibition” value is inactive: 3.29%.
Turning to `COc1cccc(CNC(=O)c2cc3c(s2)-c2ccccc2OC3)c1`, the call was inactive.
Turning to `COc1ccccc1NC(=O)C1=C(C)Nc2ncnn2C1c1ccccc1C(=O)O` (configuration not stated), the “activity change, negative = inhibition” value is inactive: 6.69%.
Turning to `COc1ccc(NC(=O)CSC2=Nc3ccccc3C3=NC(CCC(=O)NC4CCCCC4)C(=O)N23)cc1` (configuration not stated), the “activity change, negative = inhibition” value is inactive: 5.93%.
Turning to `COc1cc2nc(NC(=O)c3ccc(S(=O)(=O)N4CCOCC4)cc3)sc2cc1OC`, the outcome was inactive.
Regarding `CCCS(=O)(=O)N1CC(=O)N(c2ccc(Cl)cc2C)C(C)(C(=O)NC2CCCC2)C1` (configuration not stated), the “activity change, negative = inhibition” value is inactive: 7.3%.
On to `COc1c(C)cccc1C(=O)Nc1cccc2ccc(C)nc12`, for which the molecule was classed as inactive.
For the molecule `O=C(CSCc1ccccc1Cl)N1CCN(c2ccc(Cl)cc2)CC1`, the “activity change, negative = inhibition” value was inactive: -5.42%.
The same measure, in the same setting: as for `CCOC(=O)c1cccc(NC(=O)CCn2c(-c3ccc(F)cc3)cc(C(=O)OCC)c2C)c1`, the figure is inactive: -7.89%; as for `Cc1ccc(C(=O)c2cn(CC(=O)Nc3ccc(C)cc3Cl)c3nc(C)ccc3c2=O)cc1`, inactive: 3.57%; as for `Cc1cccc(NC(=O)N2CC(=O)Nc3sc4c(c3C2c2ccccc2)CCCC4)c1C` (configuration not stated), inactive: -0.425%.
Turning to `COc1ccc(Cn2ccn(Cc3cccc(OC)c3)c(=O)c2=O)cc1`, the call was inactive.
Turning to `CCOC(=O)C1CCN(C(=O)c2ccc(-n3ccc4ccccc43)s2)CC1`, the “activity change, negative = inhibition” value is inactive: 4.44%.
The same measure, in the same setting: in the case of `Cc1cc(C)cc(-n2c(-c3ccccc3)c(C)n3c4c(=O)n(C)c(=O)n(C)c4nc23)c1` it was inactive: 0.597%.
As to `CCOc1ccccc1OCCCn1c(-c2ccc(Cl)cc2)nc2ccccc2c1=O`, the “activity change, negative = inhibition” value is inactive: -15.1%.
In the case of `Cc1cn2c(=O)cc(COC(=O)c3ccc(NC(=O)COc4ccccc4F)cc3)nc2s1`, the molecule was called inactive.

(Values after PubChem BioAssay AID1963576 (National Center for Advancing Translational Sciences (NCATS), 2024).)
